# Source: article PMC4336329 (PLoS ONE, 2015)
# The campaign covered roughly 310,000 compounds. About 2,200 (0.71%) showed an effect of 50% or more. The effect is printed as a negative number. This is one part of the list.
# Biological target: human ether-à-go-go-related gene (hERG) potassium channel (human, UniProt Q12809)
# Assay: primary screen, population patch clamp on CHO cells stably expressing hERG
# Sequence of human ether-à-go-go-related gene (hERG) potassium channel (Q12809 whole entry, looked up): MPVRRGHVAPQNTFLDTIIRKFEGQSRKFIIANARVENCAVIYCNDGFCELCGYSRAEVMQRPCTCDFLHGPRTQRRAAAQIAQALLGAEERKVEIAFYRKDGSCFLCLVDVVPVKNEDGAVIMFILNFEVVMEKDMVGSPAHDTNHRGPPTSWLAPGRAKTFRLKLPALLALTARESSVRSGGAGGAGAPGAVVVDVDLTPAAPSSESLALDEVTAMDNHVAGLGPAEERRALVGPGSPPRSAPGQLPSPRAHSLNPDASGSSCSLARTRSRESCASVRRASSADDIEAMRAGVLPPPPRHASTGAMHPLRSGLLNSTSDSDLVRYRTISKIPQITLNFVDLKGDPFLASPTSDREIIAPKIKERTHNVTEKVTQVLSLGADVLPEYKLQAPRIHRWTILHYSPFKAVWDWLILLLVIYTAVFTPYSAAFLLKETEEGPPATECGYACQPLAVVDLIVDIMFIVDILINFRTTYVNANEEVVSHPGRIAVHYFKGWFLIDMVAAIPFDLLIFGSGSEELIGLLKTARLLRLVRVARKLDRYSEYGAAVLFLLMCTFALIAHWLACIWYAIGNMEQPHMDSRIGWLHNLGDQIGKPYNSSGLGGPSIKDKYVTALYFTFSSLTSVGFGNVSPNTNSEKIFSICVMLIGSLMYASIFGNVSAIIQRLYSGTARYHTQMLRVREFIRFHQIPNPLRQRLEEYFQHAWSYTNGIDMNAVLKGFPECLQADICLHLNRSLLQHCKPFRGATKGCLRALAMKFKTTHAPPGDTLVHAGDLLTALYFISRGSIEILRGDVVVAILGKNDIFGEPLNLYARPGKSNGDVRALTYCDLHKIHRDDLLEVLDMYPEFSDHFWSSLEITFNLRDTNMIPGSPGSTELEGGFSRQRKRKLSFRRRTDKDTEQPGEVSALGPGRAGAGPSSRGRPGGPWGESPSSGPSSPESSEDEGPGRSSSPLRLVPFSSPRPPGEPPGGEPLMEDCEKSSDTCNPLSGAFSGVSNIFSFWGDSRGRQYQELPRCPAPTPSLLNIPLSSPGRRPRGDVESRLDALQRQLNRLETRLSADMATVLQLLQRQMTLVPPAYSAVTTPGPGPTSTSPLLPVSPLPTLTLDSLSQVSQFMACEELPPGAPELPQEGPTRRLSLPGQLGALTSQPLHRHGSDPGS
row,SMILES,"hERG current change (%, negative = inhibition) at 1uM"
1,COc1ccc(-n2c(SCC(=O)NCCC(C)C)nc3ccsc3c2=O)cc1,-1.44%
2,CC12CC3CC(C)(C1)CC(C(=O)NC(=S)N1CCOCC1)(C3)C2,-2.54%
3,Fc1ccc(/C=N/NC(=S)Nc2cccnc2)cc1F,6.51%
4,O=C(CN1CCSCC1)N/N=C/c1ccc(F)cc1,-3.06%
5,CC1=C(C(=O)NCCc2ccc(C)cc2)C2(CCC(C)CC2)OC1=O (stereo not drawn),13.1%
6,O=C1CSC(c2ccccn2)N1c1ccc2ccccc2c1 (stereo not drawn),-1.59%
7,O=C(O)C[C@H]1c2ccc(C(F)(F)F)cc2S(=O)(=O)N1Cc1ccccc1,15.8%
8,N#Cc1ccc(Nc2ccccc2)c(N)c1,5.67%
9,O=C(Cn1ncn2nc(-c3ccccc3)cc2c1=O)NCc1ccccn1,19.5%
10,O=C1CC(Cc2ccccc2)C(=O)N1Cc1ccco1 (stereo not drawn),0.0823%
11,COc1ccc(/C=C/C(=O)c2ccc3c4c(cccc24)CC3)cc1OC,13.9%
12,CCOCCCNC(=O)CN1C2CCC1CC(O)(c1ccc(OC)cc1)C2 (stereo not drawn),-5.17%
13,Cn1nc([N+](=O)[O-])nc1Oc1ccc(C(C)(C)C)cc1,12.9%
14,C/C(=N\NC(=O)c1ccncc1)c1cc2ccccc2oc1=O,4.21%
15,Cc1ccc(CN2C(=O)CCC2(C)C(=O)NCc2cccnc2)cc1 (stereo not drawn),5.78%
16,CCOCCCNC(=O)CN1C(=O)/C(=C/c2ccccc2C)Sc2ccccc21,5.65%
17,C[N+]12CCC(CC1)C(OC(=O)C(O)(c1ccccc1)c1ccccc1)C2.[Br-] (stereo not drawn),10.3%
18,O=S(=O)(NCc1ccccc1Cl)c1ccc(-n2cnnn2)cc1,15.5%
19,COc1ccccc1OCCn1c(=O)oc2ccc(C)cc21,2.65%
20,COC(C[C@@H]1O[C@@H]1C(=O)[C@@H](C)OCc1ccccc1)OC,22.8%
21,OCC[C@@H]1C[C@@H](O)[C@H](O)[C@]2(OCCc3ccccc32)O1,13.4%
22,CCOc1ccc(-c2cc(CCCC(=O)NCCC(C)C)no2)cc1,5.69%
23,CC1CCN(c2c(NCc3ccc(C(=O)N(C)C4CCCCC4)cc3)c(=O)c2=O)CC1,11.6%

row,SMILES,"hERG current change (%, negative = inhibition) at 1uM"
1,CCNc1nc(Oc2ccc(C(=O)OC)cc2)nc(SC)n1,7.25%
2,O=C(CSc1nnc2ccc(-c3cccnc3)nn12)Nc1ccccc1F,4.23%
3,CCOCCn1ccc2c(OCC(=O)Nc3ccccc3OC)cccc2c1=O,15%
4,CN(CC(=O)Nc1ccc(F)cc1)CC(=O)NC1CCCCC1,6.41%
5,CCSc1ncc(Cl)c(C(=O)Nc2sc3c(c2C(=O)NCc2cccnc2)CCCC3)n1,14.5%
6,COc1ccc(C2C(C(=O)N3CCOCC3)=C(C)NC3=C2C(=O)CC(C)(C)C3)cc1O (stereo not drawn),7.79%
7,CCCc1cc(=O)[nH]c(SCC(=O)Nc2ccc(Br)cc2)n1,3.57%
8,CCOCCCNC(=O)c1cc2c(=O)n3ccccc3nc2s1,-8.87%
9,O=C(CSc1nnc(CNC(=O)c2ccc(F)cc2)o1)Nc1ccc2c(c1)OCO2,12%
10,CCn1c(C)c(C)c2cc(C(=O)Nc3cccc(Cl)c3)ccc21,9.86%
11,Cc1cc2nc(N3C(=O)CNC3=S)sc2cc1C,14.3%
12,O=C(C1CCC(=O)N(C2CCCC2)C1)N1CCN(c2ccccc2Cl)CC1 (stereo not drawn),9.21%
13,NC(N)=NC(=S)Nc1ccc(Cl)cc1,8.12%
14,CCn1c(COc2ccccc2)nnc1SCC(=O)Nc1ccc(N2CCOCC2)cc1,11.6%
15,COc1ccc(CN2CCNC(=O)C2CC(=O)N(Cc2nccn2C)C(C)C)c(OC)c1 (stereo not drawn),0.692%
16,COc1cc(CNCCc2ccccc2F)ccc1OCc1ccc(Cl)nc1.Cl,-16.1%
17,COc1cccc(CNC(=O)c2ccc(CS(=O)c3ccccc3)o2)c1 (stereo not drawn),6.26%
18,Cc1ccc(S(=O)(=O)NN=C2CCN(Cc3ccccc3)CC2)cc1,5.35%
19,O=C(CSc1ncccc1C(=O)O)NCc1ccc(F)cc1,0.121%
20,O=C(Oc1ccc(Cl)c2cccnc12)c1ccco1,-3.58%
21,CCc1[nH]c(=S)c(C#N)c2c1CCCC2,14.4%
22,COc1cccc(C(=O)NCCC2=CCCCC2)c1,9.87%
